How the values were obtained:
[1] = Protein purity and polymers by SEC-HPLC; conditions: purified antigen-binding protein; PR004433 from CHO, variants from HEK293
Procedure: In this example, analytical size-exclusion chromatography (SEC) was used to analyze the protein sample for purity and polymer form. An analytical chromatography column TSKgel G3000SWxl (Tosoh Bioscience, #08541, 5 μm, 7.8 mm×30 cm) was connected to a high performance liquid chromatography HPLC (Agilent Technologies, Agilent 1260 Infinity II) and equilibrated with a PBS buffer at room temperature for at least 1 h. A proper amount of the protein sample (at least 10 μg) was filtered through a 0.22 μm filter membrane and then injected into the system, and an HPLC program was set: the sample was passed through the chromatography column with PBS buffer at a flow rate of 1.0 mL/min for a maximum of 25 min. The detection wavelength was 280 nm. Operation was performed at room temperature. After being recorded, the chromatogram was integrated using ChemStation software and relevant data were calculated. An analysis was generated, with the retention time of the components with different molecular sizes in the sample reported.

[2] = Melting temperature (Tm1) of proteins by DSF; format: physicochemical; conditions: minimum melting temperature
Procedure: Differential scanning fluorimetry (DSF) is a commonly used high-throughput method for determining the thermostability of proteins. In this method, changes in the fluorescence intensity of the dye that binds to unfolded protein molecules were monitored using a real-time quantitative fluorescence PCR instrument to reflect the denaturation process of the protein and thus to reflect the thermostability of the protein. In this example, the melting temperature (Tm) of a protein molecule was measured by DSF. 10 μg of protein was added to a 96-well PCR plate (Thermo, #AB-0700/W), followed by the addition of 2 μL of 100× diluted dye SYPRO™ (Invitrogen, #2008138), and then the mixture in each well was brought to a final volume of 40 μL by adding buffer. […] The FRET scanning mode was used and data analysis was performed using Bio-Rad CFX Maestro software to calculate the Tm of the sample.
The antigen-binding protein derived from PR004433 in Table 0-3 was expressed and purified according to the method described in 0, and the SEC-HPLC method described in 0 was used to analyze the purity and the DSF method described in 0 was used to determine the minimum melting temperature (Tm1). It can be seen that after the hinge region sequence of HCAb PR004433 is replaced with variant sequences of various linker peptides, and Cys6 and Cys2 are separated by at least 3 other amino acids, the variant sequences derived from PR004433 can be effectively expressed, and the expression yield and thermostability Tm1 of the vast majority of variant molecules are not affected.

Molecule	SEC-HPLC purity (%) [1] [%]	DSF Tm1 (° C.) [2] [°C]
PR006038: PR004433 variant, linker peptide Hinge5_12, SEQ ID NO: 113 (antibody) heavy: EVQLVETGGGLIQPGGSLRLSCAASGFTVSDSYMTWVRQAPGKGLEWVSVIFSGGRTYYSDSVKGRFTISRDNAKNTLYLQMNSLRAEDTALYYCARRNYDDTRGTDVFDIWGQGTMVTVSSEPKSCKDYGR[not shown - human IgG1 Fc]	99.58	54.6
PR006039: PR004433 variant, linker peptide Hinge5_13, SEQ ID NO: 114 (antibody) heavy: EVQLVETGGGLIQPGGSLRLSCAASGFTVSDSYMTWVRQAPGKGLEWVSVIFSGGRTYYSDSVKGRFTISRDNAKNTLYLQMNSLRAEDTALYYCARRNYDDTRGTDVFDIWGQGTMVTVSSEPKSCSDNHD[not shown - human IgG1 Fc]	99.23	55.6
PR006310: PR004433 variant, linker peptide Hinge7_2, SEQ ID NO: 118 (antibody) heavy: EVQLVETGGGLIQPGGSLRLSCAASGFTVSDSYMTWVRQAPGKGLEWVSVIFSGGRTYYSDSVKGRFTISRDNAKNTLYLQMNSLRAEDTALYYCARRNYDDTRGTDVFDIWGQGTMVTVSSEPKSCAVLPEIG[not shown - human IgG1 Fc]	98.68	55.0
PR006319: PR004433 variant, linker peptide Hinge10_3, SEQ ID NO: 127 (protein, PR006319 chain) EVQLVETGGGLIQPGGSLRLSCAASGFTVSDSYMTWVRQAPGKGLEWVSVIFSGGRTYYSDSVKGRFTISRDNAKNTLYLQMNSLRAEDTALYYCARRNYDDTRGTDVFDIWGQGTMVTVSSEPKSCQMSVFARHFP[not shown - human IgG1 Fc]	100.00	52.8
PR006321: PR004433 variant, linker peptide Hinge10_7, SEQ ID NO: 129 (protein, PR006321 chain) EVQLVETGGGLIQPGGSLRLSCAASGFTVSDSYMTWVRQAPGKGLEWVSVIFSGGRTYYSDSVKGRFTISRDNAKNTLYLQMNSLRAEDTALYYCARRNYDDTRGTDVFDIWGQGTMVTVSSEPKSCITEWSVRDLQ[not shown - human IgG1 Fc]	94.49	55.2
PR006313: PR004433 variant, linker peptide Hinge8_8, SEQ ID NO: 121 (protein, PR006313 chain) EVQLVETGGGLIQPGGSLRLSCAASGFTVSDSYMTWVRQAPGKGLEWVSVIFSGGRTYYSDSVKGRFTISRDNAKNTLYLQMNSLRAEDTALYYCARRNYDDTRGTDVFDIWGQGTMVTVSSEPKSCMPRLLFHS[not shown - human IgG1 Fc]	97.28	49.2
PR006315: PR004433 variant, linker peptide Hinge8_20, SEQ ID NO: 123 (protein, PR006315 chain) EVQLVETGGGLIQPGGSLRLSCAASGFTVSDSYMTWVRQAPGKGLEWVSVIFSGGRTYYSDSVKGRFTISRDNAKNTLYLQMNSLRAEDTALYYCARRNYDDTRGTDVFDIWGQGTMVTVSSEPKSCRMTVYGSR[not shown - human IgG1 Fc]	99.38	51.8
PR006316: PR004433 variant, linker peptide Hinge9_5, SEQ ID NO: 124 (protein, PR006316 chain) EVQLVETGGGLIQPGGSLRLSCAASGFTVSDSYMTWVRQAPGKGLEWVSVIFSGGRTYYSDSVKGRFTISRDNAKNTLYLQMNSLRAEDTALYYCARRNYDDTRGTDVFDIWGQGTMVTVSSEPKSCLALPGVMSP[not shown - human IgG1 Fc]	99.15	53.6
PR006318: PR004433 variant, linker peptide Hinge9_14, SEQ ID NO: 126 (protein, PR006318 chain) EVQLVETGGGLIQPGGSLRLSCAASGFTVSDSYMTWVRQAPGKGLEWVSVIFSGGRTYYSDSVKGRFTISRDNAKNTLYLQMNSLRAEDTALYYCARRNYDDTRGTDVFDIWGQGTMVTVSSEPKSCGGGPFLWLV[not shown - human IgG1 Fc]	86.91	47.4
PR006041: PR004433 variant, linker peptide Hinge6_15, SEQ ID NO: 116 (antibody) heavy: EVQLVETGGGLIQPGGSLRLSCAASGFTVSDSYMTWVRQAPGKGLEWVSVIFSGGRTYYSDSVKGRFTISRDNAKNTLYLQMNSLRAEDTALYYCARRNYDDTRGTDVFDIWGQGTMVTVSSEPKSCSGPSTL[not shown - human IgG1 Fc]	99.12	55.2
PR006042: PR004433 variant, linker peptide Hinge6_18, SEQ ID NO: 117 (antibody) heavy: EVQLVETGGGLIQPGGSLRLSCAASGFTVSDSYMTWVRQAPGKGLEWVSVIFSGGRTYYSDSVKGRFTISRDNAKNTLYLQMNSLRAEDTALYYCARRNYDDTRGTDVFDIWGQGTMVTVSSEPKSCSAVPRR[not shown - human IgG1 Fc]	99.05	54.4
PR006032: PR004433 variant, linker peptide Hinge3_6, SEQ ID NO: 107 (antibody) heavy: EVQLVETGGGLIQPGGSLRLSCAASGFTVSDSYMTWVRQAPGKGLEWVSVIFSGGRTYYSDSVKGRFTISRDNAKNTLYLQMNSLRAEDTALYYCARRNYDDTRGTDVFDIWGQGTMVTVSSEPKSCAGW[not shown - human IgG1 Fc]	96.89	56.6
PR006033: PR004433 variant, linker peptide Hinge3_18, SEQ ID NO: 108 (antibody) heavy: EVQLVETGGGLIQPGGSLRLSCAASGFTVSDSYMTWVRQAPGKGLEWVSVIFSGGRTYYSDSVKGRFTISRDNAKNTLYLQMNSLRAEDTALYYCARRNYDDTRGTDVFDIWGQGTMVTVSSEPKSCNVA[not shown - human IgG1 Fc]	95.66	54.6
PR006035: PR004433 variant, linker peptide Hinge4_6, SEQ ID NO: 110 (antibody) heavy: EVQLVETGGGLIQPGGSLRLSCAASGFTVSDSYMTWVRQAPGKGLEWVSVIFSGGRTYYSDSVKGRFTISRDNAKNTLYLQMNSLRAEDTALYYCARRNYDDTRGTDVFDIWGQGTMVTVSSEPKSCRDAR[not shown - human IgG1 Fc]	99.33	54.4
PR006036: PR004433 variant, linker peptide Hinge4_15, SEQ ID NO: 111 (antibody) heavy: EVQLVETGGGLIQPGGSLRLSCAASGFTVSDSYMTWVRQAPGKGLEWVSVIFSGGRTYYSDSVKGRFTISRDNAKNTLYLQMNSLRAEDTALYYCARRNYDDTRGTDVFDIWGQGTMVTVSSEPKSCRGTL[not shown - human IgG1 Fc]	99.55	54.2

Reference: US20240050583A1, “PROTEIN-DRUG CONJUGATE AND SITE-SPECIFIC CONJUGATING METHOD” (HARBOUR BIOMED (SHANGHAI) CO., LTD, priority 2020, published 2024)
